Screen size: about 310,000 compounds; about 2,200 (0.71%) showed an effect of 50% or more. The effect is printed as a negative number. Some of the results follow.
Molecular target: human ether-à-go-go-related gene (hERG) potassium channel (human, UniProt Q12809)
Assay: primary screen, population patch clamp on CHO cells stably expressing hERG

Sequence of human ether-à-go-go-related gene (hERG) potassium channel (Q12809 whole entry, looked up): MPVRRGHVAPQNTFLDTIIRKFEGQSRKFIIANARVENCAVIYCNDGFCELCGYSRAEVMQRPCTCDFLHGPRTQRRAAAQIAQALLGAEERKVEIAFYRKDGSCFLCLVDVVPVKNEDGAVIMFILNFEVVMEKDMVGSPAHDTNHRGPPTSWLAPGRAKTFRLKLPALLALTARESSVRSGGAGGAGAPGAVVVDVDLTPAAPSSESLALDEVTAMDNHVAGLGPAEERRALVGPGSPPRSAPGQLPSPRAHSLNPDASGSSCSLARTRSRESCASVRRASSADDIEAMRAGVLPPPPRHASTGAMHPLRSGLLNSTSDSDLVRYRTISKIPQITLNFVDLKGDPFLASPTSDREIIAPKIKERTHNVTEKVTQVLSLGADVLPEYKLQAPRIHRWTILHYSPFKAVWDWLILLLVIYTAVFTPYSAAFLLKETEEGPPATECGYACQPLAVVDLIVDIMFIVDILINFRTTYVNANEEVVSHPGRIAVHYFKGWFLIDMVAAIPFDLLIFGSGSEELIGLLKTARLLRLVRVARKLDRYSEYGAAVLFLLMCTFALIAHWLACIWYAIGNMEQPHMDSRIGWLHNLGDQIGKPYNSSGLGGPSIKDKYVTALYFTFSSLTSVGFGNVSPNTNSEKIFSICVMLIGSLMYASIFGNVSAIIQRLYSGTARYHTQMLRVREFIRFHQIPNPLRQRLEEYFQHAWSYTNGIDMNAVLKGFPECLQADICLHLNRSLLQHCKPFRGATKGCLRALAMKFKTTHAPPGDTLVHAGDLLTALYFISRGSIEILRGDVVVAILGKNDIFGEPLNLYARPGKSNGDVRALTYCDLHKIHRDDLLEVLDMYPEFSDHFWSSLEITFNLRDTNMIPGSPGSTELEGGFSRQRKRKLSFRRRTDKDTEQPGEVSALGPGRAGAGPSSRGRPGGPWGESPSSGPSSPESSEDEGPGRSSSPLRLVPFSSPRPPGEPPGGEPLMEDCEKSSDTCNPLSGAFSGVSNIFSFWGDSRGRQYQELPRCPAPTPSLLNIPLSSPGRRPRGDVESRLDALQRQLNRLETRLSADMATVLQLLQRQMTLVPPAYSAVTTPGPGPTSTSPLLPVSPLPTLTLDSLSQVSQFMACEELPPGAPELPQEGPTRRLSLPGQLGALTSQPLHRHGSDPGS

Row | SMILES | hERG current change (%, negative = inhibition) at 1uM [%]
1 | CS(=O)(=O)Nc1cccc(C2=NN(S(C)(=O)=O)C(c3ccc4c(c3)OCO4)C2)c1 (stereo not shown) | -11.3
2 | CC(C)COCC(O)CC(Cc1ccccc1)C(=O)NN (stereo not shown) | 18.1
3 | O=C(CNC(=O)c1cccc(F)c1)OCC(=O)N1CCN(C(=O)c2ccco2)CC1 | 22.1
4 | Cc1ccc(C(=O)CCC(=O)OCC(=O)N(CC(C)C)c2c(N)n(Cc3ccccc3)c(=O)[nH]c2=O)cc1 | -16.6
5 | COc1ccc(NC(=O)CSc2nc(O)cc(=O)[nH]2)c(OC)c1 | 11.2
6 | Cc1nc(=O)c(-c2ccccc2)c(C)n1-c1ccccc1C(=O)O | 17.9
7 | c1ccc(Oc2nc(N3CCOCC3)nc(N3CCOCC3)n2)cc1 | -2.67
8 | CCn1c(SCC(=O)Nc2nc3ccccc3s2)nnc1-c1ccc(OC)cc1 | 1.57
9 | O=C(CSc1nnc(NC(=O)c2ccc(F)cc2F)s1)NC1CC1 | 14.9
10 | CC(C)[N+](C)(CCC(C(N)=O)(c1ccccc1)c1ccccc1)C(C)C.[I-] | 16.6
11 | Cc1nnc(SCC(=O)NC23CC4CC(CC(C4)C2)C3)s1 | 9.96
12 | Cc1ccc(NC(=O)C2CCCN(S(=O)(=O)c3cccnc3)C2)cc1C (stereo not shown) | 9.65
13 | CC(C)C[C@H](NC(=O)c1nc[nH]c1C(=O)N1CC[NH2+]CC1)C(=O)OC(C)(C)C.[Cl-] | 1.97
14 | CCOc1cccc(/C=C/c2ccc3cccc(O)c3n2)c1OC | 9.13
15 | COc1cc2c(C(=O)Nc3ccc4c(c3)OCO4)cn(CC(C)C)c(=O)c2cc1OC | 15.1
16 | CCCOC(=O)c1c(NC(=O)CCCn2nc([N+](=O)[O-])c(Cl)c2C)sc(C(=O)OC)c1C | 5.75
17 | O=C(NCc1ccc(F)cc1)c1ccc(CNc2c(N3CCOCC3)c(=O)c2=O)cc1 | 13.9
18 | NC(=O)NC(=O)CC1S/C(=N/N=C2\CSC(=O)N2)NC1=O (stereo not shown) | 6.42
19 | O=S(=O)(N1CCCCC1)N1CCN(CC(O)COc2ccc3cc(Br)ccc3c2)CC1 (stereo not shown) | 3.6
20 | COc1ccc(/C=C(/NC(=O)c2ccccc2)C(=O)N/N=C/c2sccc2C)cc1 | 3.48
21 | Cc1cc(C)nc(N2CCCC(C(=O)Nc3nc4ccc(S(C)(=O)=O)cc4s3)C2)n1 (stereo not shown) | -1.99
22 | COc1ccccc1C1C(C(=O)c2ccco2)=C(O)C(=O)N1c1cc(C)on1 (stereo not shown) | 3.73
23 | O=C(Nc1nc2ccc(S(=O)(=O)N3CCOCC3)cc2s1)c1cccs1 | 13.3
24 | Brc1ccc2c(c1)C(c1ccc(N3CCOCC3)cc1)=NNC(c1cccs1)=N2 | 8.38
25 | Cc1ccc(CN2CCN(CC(=O)N3CCC(C(N)=O)CC3)C2=O)cc1 | 9.62
26 | O=C(Nc1nnc(SCc2ccccc2Cl)s1)C1COc2ccccc2O1 (stereo not shown) | 17.7
27 | OCCNC(=S)Nc1ccc2c(c1)OCCO2 | 11.7
28 | Cn1cccc1/C=N/NC(=O)c1cccnc1 | 11.2

Row | SMILES | hERG current change (%, negative = inhibition) at 1uM [%]
29 | COc1ccc(NC(=O)CSc2nc3[nH]c(=O)cc(O)c3s2)cc1OC | 9.53
30 | O=C(NCC(=O)N(Cc1ccccc1)C(C(=O)NC1CCCCC1)c1ccco1)c1ccco1 (stereo not shown) | -10.8
31 | Cc1cc(C(=O)NCCc2ccc(Cl)cc2)c2ccccc2n1 | -0.0711
32 | O=C(NCc1cccc(C(F)(F)F)c1)C1CCN(c2ncccn2)CC1 | -16.6
33 | O=C(Cn1cc2c(n1)CCCC2)Nc1cc(-c2cccc(Cl)c2)no1 | 10.7
34 | CCCCn1c(N)c(N(CCOC)C(=O)CSCc2cccc(C)c2)c(=O)[nH]c1=O | 16.5
35 | CCCCCc1nnc(NC(=O)C2CCCO2)s1 (stereo not shown) | 8.58
36 | COc1ccccc1NC(=S)N1CCN(Cc2ccc3c(c2)OCO3)CC1 | 13.7
37 | COc1ccc(CCNC(=O)c2cccc([N+](=O)[O-])c2)cc1OC | 3.3
38 | O=C(/C=C/Nc1cccc(O)c1)c1ccccc1 | 12.5
39 | CCN(CC)C(=O)c1csc(Nc2ccc(C)cc2)n1 | -12.1
40 | COc1ccc(-c2cc3ccc(OCc4nn[nH]n4)cc3oc2=O)cc1 | -12.2
41 | CC(C)C(C)NC(=O)COc1ccc([N+](=O)[O-])cc1Cl (stereo not shown) | 6.92
42 | CCCc1nnc(NC(=O)CCC(=O)N2CCN(Cc3ccc(C)cc3C)CC2)s1 | -2.14
43 | C=C1c2cc(C)ccc2NC(=O)N1c1ccc(C)cc1 | 10.6
44 | O=C(O)[C@@H]1CSC2c3ccccc3C(=O)N21 (stereo partly shown) | 13.9
45 | CN1C(=O)[C@H]2[C@@H](C3CC3)N3C(=O)CN(CC4CC4)C(=O)[C@@]3(C)[C@H]2C1=O | 16.9
46 | CN(C)CCNc1ccc(Cl)cc1[N+](=O)[O-] | 1.54
47 | CCCN1C2CCCC1CC(NC(=O)NC13CC4CC(CC(C4)C1)C3)C2 (stereo not shown) | -11.7
48 | Cc1ccccc1NC(=O)C1C2CCCCC21 (stereo not shown) | 3.79
49 | CC1CC(C)CN(S(=O)(=O)c2ccc3c(c2)oc(=O)n3CC(=O)N2CCOCC2)C1 (stereo not shown) | 10.6
50 | Cc1ccnc(NC(=O)C(C)n2cc([N+](=O)[O-])cn2)c1 (stereo not shown) | 8.07
51 | CC(=O)Nc1ccc(S(=O)(=O)NC2(C(F)(F)F)NC(=O)N(Cc3ccccc3)C2=O)cc1 (stereo not shown) | 19.3
52 | COc1cccc(CN(C)C(=O)c2ccc(NC(=O)CC3SC(N4CCCC4)=NC3=O)cc2)c1OC (stereo not shown) | 2.54
53 | O=C(COC(=O)c1ccccc1OCc1ccc(F)cc1)NCC1CCCO1 (stereo not shown) | 5.17
54 | COC(=O)C1=C(c2ccc(OC)c(OC)c2)C[C@@H]2CC[C@H]1N2C(=O)NCCO | 6.3
55 | Cc1ccc(NC(=O)Cc2ccccc2Cl)cc1S(=O)(=O)N(C)C | 7.27

From article PMC4336329 (PLoS ONE, 2015)
